From PubChem BioAssay (NCATS) come the findings set out here.

Values joined by “and” are separate entries in the source; they are usually repeats but may differ in a detail not shown here. Identical values can stand only once. The list shows a part of the results. Shown are side measurements of this screen, not its main read-out; they come without a call. For some of these results: Compounds called inactive in the main read-out are mostly missing here. Words in brackets tell the shape of the fitted curve; partial curves, single points and poor fits give uncertain potencies.

Assay [1] is described as follows: qHTS Assay for Lipid Storage Modulators (AID 1519). To be noted: Drosophila S3 cells, BODIPY lipid droplet/cell ratio, laser cytometry, cells loaded with oleic acid. In short, it runs like this:
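Cells seeded at 5,000 per well were treated with compounds over a concentration series and loaded with oleic acid (400 uM, as added). Lipid droplet fluorescence (488 nm excitation, 500-530 nm channel) was read by laser-scanning cytometry and normalized to 20 uM Triacsin C.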

Assay [2] in a line: A High-Content qHTS Against Drug Library for the Identification of Small Molecules that Inhibit DYT1 Early Onset Primary Dystonia-Associated Cell Pathology (AID 1645839). To be noted: HEK293 Flp-In EGFP-delE TorsinA, punctate imaging, 48 h; measured here: cell count cytotoxicity. In outline:
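In this high-content image screen, delE TorsinA mislocalization in inducible Flp-In 293 cells is scored as %pathology, with cell count serving as the counterscreen. Compound exposure lasts 48 h under tetracycline induction in reduced-serum medium.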

Assay [3] in a line: qHTS Assay for Modulators of Human Peripheral Myelin Protein 22 (PMP22) Expression/Activity (AID 1967). To be noted: Cell-based PMP22 reporter, dual-color luciferase ratio. In outline:
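Luminescence ratio of Pmp22 promoter-driven green luciferase to EF-alpha-driven red luciferase, in engineered mouse MSC80 Schwann cells, served as read-out. Compounds were incubated 24h; untreated cells defined 0% Activity; curves were classified by r2, magnitude and activity.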
Background: qHTS replaces the single test concentration by a dilution series.

For assay [4], the target named is Nicotinamide N-methyltransferase (Homo sapiens) (UniProt P40261). Description: Confirmatory Screen for Target Class Profiling of Small Molecule Inhibitors of Methyltransferases (AID 1745852).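 Note: inhibitor potency for blocking SAH production.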 To be noted: MTase-Glo luminescence, SAH detection, recombinant enzyme; measured here: NNMT inhibition potency.
Assay [5] in a line: qHTS Validation Assay to Find Inhibitors of Chronic Active B-Cell Receptor Signaling (AID 485345). To be noted: ABC-DLBCL cells, chronic BCR signaling reporter. In short, it runs like this: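 Read-out: ratio of filter-corrected green (IkappaBalpha fusion) to red (native) luciferase signal in doxycycline-induced TMD8 cells after 4 h at 37C. Titration spanned 46 uM–3 nM; Data were normalised to basal cells and 10 uM MG-132 wells.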

A short description of assay [6]: qHTS for identification of novel therapeutic agents for treatment of microphthalmiaassociated transcription factor (MiT) renal cell carcinoma (RCC) (AID 1963991). To be noted: CellTiter-Glo, 48 h; for z-score: stronger effect = lower value. In short, it runs like this:
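Viability of three TFE3-fusion renal carcinoma lines measured by CellTiter-Glo after 48 h treatment with each of 1912 compounds at 11 concentrations. Responses scaled between DMSO (100%) and empty wells (0%) before curve fitting.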

Assay [7] can be described thus: Nrf2 qHTS screen for inhibitors: Validation (AID 493153). To be noted: A549 ARE-Fluc reporter, 18-24 h; AC50: CellTiter-Fluor fluorescence read, measured here: cytotoxicity CellTiter-Fluor AC50; viability change: measured here: cytotoxicity max response. In short, it runs like this: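 Dose-response validation uses reporter A549 cells with firefly luciferase under an antioxidant response element. Compounds stay on cells 18-24 h at 37°C, and luminescence indicates Nrf2-driven transcription.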

Assay [8] in a line: qHTS drug screen for cell cycle checkpoint inhibitors in PARPi-resistant BRCA-mutant ovarian cancer cell lines. (AID 1963452). To be noted: PEO1/OlaR viability, CellTiter-Glo luminescence, 96 h. In short, it runs like this:
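PEO1, PEO4 and PEO1/OlaR ovarian cancer cells, 600 per well, exposed 96 h at 37C to a dilution series. Viability read by CellTiter-Glo luminescence, normalized to DMSO and empty wells; activity summarized as Z-AUC.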

The mark [9] stands for this setting: measured here: cell count channel max response.
Setting [10] is: measured here: cell number channel AC50.
The mark [11] stands for this setting: measured here: lipid (BODIPY) channel AC50.
[12] abbreviates: measured here: lipid channel max response.
Tags give direction and shape of the fitted curve.

Chain of UniProt P40261 (P40261 whole entry, looked up, the tested form may be a part): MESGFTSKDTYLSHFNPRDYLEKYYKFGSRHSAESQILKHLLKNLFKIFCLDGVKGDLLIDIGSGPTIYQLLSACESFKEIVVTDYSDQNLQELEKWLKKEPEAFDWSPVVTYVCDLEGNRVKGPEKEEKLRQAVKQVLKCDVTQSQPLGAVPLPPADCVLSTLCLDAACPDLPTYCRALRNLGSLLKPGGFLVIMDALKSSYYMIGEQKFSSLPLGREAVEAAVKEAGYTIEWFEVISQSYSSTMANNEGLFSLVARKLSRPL

By AC50 is commonly meant the concentration giving half of the maximal activity seen. As to `Clc1ccccc1-c1nccc(NCc2ccccc2)n1`, the max response in assay [1] (setting [9]) is 4.82%; in assay [1] (setting [12]) it was 7.67%. For the same compound, the AC50 is 4.47 µM [rising, single point] in assay [1] (setting [10]) and 3.98 µM [rising, partial curve] in assay [1] (setting [11]).

Take `Cn1cc(-c2nc3cnc(N4CCNCC4)nc3n(-c3ccccc3)c2=O)c2ccccc21`: the results for the max response in assay [1] (setting [9]) and in assay [1] (setting [12]) were 32.5% and 41%, respectively. Besides, the AC50 is 14.1 µM [rising, partial curve] in assay [1] (setting [10]) and 14.1 µM [rising, partial curve] in assay [1] (setting [11]).

With `N#Cc1cccc(-c2cc(NCc3cccnc3)ncn2)c1`, the max response in assay [1] (setting [9]) worked out at 32.1%; in assay [1] (setting [12]), 38%. The AC50 in assay [1] (setting [10]) was 0.708 µM [rising, full curve, poor fit]; in assay [1] (setting [11]), 0.631 µM [rising, full curve].

As to `COc1ccc2[nH]cc(CCNc3ncncc3-c3ccc(C(=O)N(C)C)cc3)c2c1`, the max response in assay [1] (setting [9]) was found to be 24.1%; in assay [1] (setting [12]), 25.3%. For the same compound, the AC50 was 0.126 µM [rising, full curve] in assay [1] (setting [10]) and 0.158 µM [rising, full curve] in assay [1] (setting [11]).

`N[C@@H](Cc1ccc(O)c(I)c1)C(=O)O`: the max response in assay [1] (setting [9]) was 49.7%; in assay [1] (setting [12]), 51%. Moreover, the AC50 in assay [1] (setting [10]) is 39.8 µM [rising, single point]; in assay [1] (setting [11]) it was 39.8 µM [rising, single point].

Regarding `CCCCCCCCNC(C)C(O)c1ccc(SC(C)C)cc1` (stereo not given), the max response in assay [1] (setting [9]) was -104%; in assay [1] (setting [12]), -109%. For the same compound, the AC50 was 25.1 µM [falling, single point] in assay [1] (setting [10]); 22.4 µM [falling, single point] in assay [1] (setting [11]); 11.2 µM [falling, partial curve, poor fit] in assay [2].

On to `COCCn1c(=O)c(-c2ccc(Cl)cc2)nc2cnc(N(C)C)nc21`, for which the figures for the max response in assay [1] (setting [9]) and in assay [1] (setting [12]) were 45.2% and 48.7%, respectively. Further, the AC50 was 2.51 µM [rising, full curve] in assay [1] (setting [10]) and 2.24 µM [rising, full curve] in assay [1] (setting [11]).

The term IC50 denotes the concentration needed to halve the response being measured. Turning to `CCC(=O)c1ccc2c(c1)N(CCCN(C)C)c1ccccc1S2`, the max response in assay [1] (setting [9]) stood at 62.6%; in assay [1] (setting [12]), 63.4%. Further, the half-maximal activity concentration (AC50) in assay [1] (setting [10]) is 35.5 µM [rising, partial curve, poor fit]; in assay [1] (setting [11]) it was 35.5 µM [rising, partial curve, poor fit]; in assay [3] (measured here: green reporter channel AC50, mouse Pmp22 promoter in mouse Schwann cells) it was 33.8 µM [falling, full curve]; in assay [3] (measured here: red reporter channel AC50, EF-alpha promoter control reporter in MSC80 mouse Schwann cells) it was 42.6 µM [falling, partial curve]; in assay [2] it was 12.6 µM [falling, partial curve]. Moreover, the IC50 in assay [4] was 24.3 µM [falling, partial curve].

Regarding `COCCn1c(=O)c(-c2ccc(OC)cc2)nc2cnc(OCc3ccccc3)nc21`, the max response in assay [1] (setting [9]) came to 30.5%; in assay [1] (setting [12]), 35%. In addition, the AC50 in assay [1] (setting [10]) is 4.47 µM [rising, partial curve]; in assay [1] (setting [11]), 2.24 µM [rising, partial curve].

`C=C1C(=O)OC2C[C@@]3(C)CCCC(=C)[C@@H]3CC12` (stereo not given in full): the max response was determined as 51.9% in assay [1] (setting [9]) and 65.5% in assay [1] (setting [12]). Also, the AC50 was 12.6 µM [rising, full curve] in assay [1] (setting [10]) and 12.6 µM [rising, full curve] in assay [1] (setting [11]).

As to `Nc1ccc(S(=O)(=O)Nc2cnc3ccccc3n2)cc1`, the max response in assay [1] (setting [9]) was found to be 30.6%; in assay [1] (setting [12]), 43.7%. Besides, the half-maximal activity concentration (AC50) in assay [1] (setting [10]) is 25.1 µM [rising, single point]; in assay [1] (setting [11]), 25.1 µM [rising, partial curve]; in assay [2], 2.82 µM [falling, partial curve, poor fit].

In the case of `Nc1[nH]nc2nc3ccccc3nc12`, the figures for the max response in assay [1] (setting [9]) and in assay [1] (setting [12]) were 81.1% and 98.6%, respectively. The AC50 in assay [1] (setting [10]) is 5.01 µM [rising, full curve]; in assay [1] (setting [11]), 4.47 µM [rising, full curve].

Consider `COc1cccc(-c2cncnc2NCCN2CCOCC2)c1`, for which the max response in assay [1] (setting [9]) was determined as 35.7%; in assay [1] (setting [12]), 42.5%. For the same compound, the AC50 in assay [1] (setting [10]) is 2.51 µM [rising, full curve]; in assay [1] (setting [11]) it was 2.51 µM [rising, full curve].

Regarding `CN(Cc1ccco1)c1cc(-c2cccc(NS(C)(=O)=O)c2)ncn1`, the max response in assay [1] (setting [9]) was 31.2%; in assay [1] (setting [12]), 40.2%. For the same compound, the AC50 in assay [1] (setting [10]) is 1.78 µM [rising, full curve, poor fit]; in assay [1] (setting [11]) it was 2 µM [rising, full curve].

Turning to `C[N+]1(C)CCc2cc3c(cc2[C@@H]1[C@@H]1C(=O)Oc2c1ccc1c2OCO1)OCO3`, the max response in assay [1] (setting [9]) was 42.9% and 55%; in assay [1] (setting [12]), 53.8% and 96.7%. In addition, the AC50 was 31.6 µM [rising, partial curve, poor fit] and 12.6 µM [rising, partial curve, poor fit] in assay [1] (setting [10]); 31.6 µM [rising, partial curve, poor fit] and 15.8 µM [rising, partial curve] in assay [1] (setting [11]).

With `Cn1ccc2cc3c(cc21)CCN3C(=O)Nc1cccnc1`, the max response in assay [1] (setting [9]) was 93% and 46%; in assay [1] (setting [12]), 130% and 48.9%. The AC50 in assay [1] (setting [10]) was 2 µM [rising, full curve, poor fit]; in assay [1] (setting [11]), 4.47 µM [rising, partial curve, poor fit]; in assay [5] (measured here: CBG/CBR ratio read-out), 9.2 µM [falling, partial curve]; in assay [5] (measured here: CBR control luciferase (viability counter)), 5.8 µM [rising, partial curve]; in assay [2] it was 10 µM [falling, single point]; in assay [6] (TFE3-RCC viability, measured here: UOK145 cell viability) it was 26.4 µM [falling, single point]. Further, the z-score was found to be 0.604 in assay [6] (TFE3-RCC UOK109 viability, measured here: UOK109 Z-AUC); 0.795 in assay [6] (TFE3-RCC viability, measured here: UOK124 Z-AUC); 0.621 in assay [6] (TFE3-RCC viability, measured here: UOK145 Z-AUC).

In the case of `COc1ccc2c(c1OC)C(=O)O[C@@H]2[C@H]1c2c(cc3c(c2OC)OCO3)CCN1C`, the max response is 99.9% and 100% in assay [1] (setting [9]); 129% and 134% in assay [1] (setting [12]). For the same compound, the AC50 in assay [1] (setting [10]) is 4.47 µM [rising, partial curve] and 8.91 µM [rising, partial curve]; in assay [1] (setting [11]), 4.47 µM [rising, partial curve] and 11.2 µM [rising, partial curve]; in assay [7] it was 16.4 µM [falling, partial curve]; in assay [8] (measured here: PEO1 parental viability) it was 15.5 µM [falling, single point]; in assay [8] (measured here: PEO4 viability) it was 21.9 µM [falling, single point]. For the same compound, the viability change in assay [7] is -34.3%.
